Experimental data published in patent publication US20240082282A1 (priority 2020, published 2024).
Values after ≈ are worked out from the molar mass of the structure shown.

Key:
Escherichia coli W0153 [1] = test: microbe, parasite or virus in culture; details: W0153, read-out: Minimum inhibitory concentration (MIC)
Escherichia coli W0153 [2] = system: Escherichia coli W0153

| Compound | MIC (Escherichia coli W0153 [1]) [µg/mL] | Minimum inhibitory concentration (MIC) (Escherichia coli W0153 [2]) [µg/mL] |
| --- | --- | --- |
| C[C@H]1c2cccc(O)c2C(=O)C2=C(O)[C@]3(O)C(=O)C(C(N)=O)=C(O)[C@@H](N(C)C)[C@@H]3[C@@H](O)[C@@H]21 [Doxycycline] | 0.12 (≈ 0.27 µM) |  |
| Hygromycin A |  | 16 |
| CC1(C)S[C@@H]2[C@H](NC(=O)[C@H](N)c3ccc(O)cc3)C(=O)N2[C@H]1C(=O)O [Amoxicillin] | 4 (≈ 10.9 µM) |  |
| CO/N=C(\C(=O)N[C@@H]1C(=O)N2C(C(=O)O)=C(CSc3nc(=O)c(=O)[nH]n3C)CS[C@H]12)c1csc(N)n1 [Ceftriaxone] | 0.01 (≈ 0.018 µM) |  |
